# Data from the supplement of paper PMC11417369.
# ± gives the standard deviation of the averaged measurements. The list shows a part of the results.
# Test system: PfAP2-I AP2 domain 3 (GST-tagged)
# Experiment: gcPBM binding intensity (ln(normalized median fluorescence intensity)); higher = stronger DNA binding
# Outline: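 Using an Agilent 4 × 180k array, primer-extended double-stranded 36-bp intergenic genomic probes and negative controls were exposed for 1 h to GST-fused P. falciparum DNA-binding domains expressed in E. coli. Binding was carried out in 1× PBS with 1% milk, 0.2 mg/ml BSA, 0.5% salmon testes DNA and 0.03% Triton X-100, and protein was detected with Alexa488 anti-GST antibody and a 488 nm scan. Binding intensity is the highest Masliner-normalised natural-log median intensity across replicate spots of either probe orientation.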
row,Sequence,gcPBM binding intensity (ln)
1,ATTAAAATAGAAAAAAAAAAAAAAAAAAAAAAAAAA [CACACA_negctrl_site1117],8.29 ± 0.58
2,TATGGGGAACTATAATGTACGTATTCCTCATATATA [XGTACX_site338],8.01 ± 0.27
3,TTTTCAAAATGTTGTACACACAAAAAAAAAAAAAAA [CACACA_site1550],8.31 ± 0.38
4,TTGTATTGTATATGCACACATAGAACACTTTTTTTT [CACACA_site4133],9.03 ± 0.49
5,TAAATTTTGTTTAGCACACACACATACATACATACA [CACACA_site3155],9.03 ± 0.65
6,TTGATATACTATGACACATGCAAATAAAACATTATA [TGCATGCA_site535],8.03 ± 0.52
7,TAATCATTTTTAAATTGTACAATTTATATAATAAGT [XGTACX_site6081],7.92 ± 0.24
8,TATATCTGTATCATTACACACATGTATACTTATTTG [CACACA_site6134],7.7 ± 0.66
9,TACCTATATACATACACACACATATAACCAATGTAG [CACACA_site7096],8.03 ± 0.39
10,AGAAGATTAAAAATTGCACACAAAAATATATTTTCT [CACACA_site8359],8.27 ± 0.42
11,TAATAAATAAAAACATGTACATATATACATATATGT [XGTACX_site485],7.75 ± 0.36
12,AAAGACTTTTTATGAGCACACACATATATTATGGAG [CACACA_site8254],8 ± 0.63
13,GATATATAGGTATTTACACACAATGTGAGATCTATA [CACACA_site7575],7.79 ± 0.47
14,TGATAATAAGCATACACACACACACTAAAAAAAAAA [CACACA_site6478],8.16 ± 0.47
15,ATGATTATACAAAATATACACACGTGGACACAAATA [CACACA_site8304],8.22 ± 0.66
16,TTTCTATAATATATATGTACATATATAATATGTCGT [XGTACX_site3676],7.74 ± 0.41
17,AGATAAAATAAATACACACACATAAATACGTACAAA [CACACA_site4739],8.23 ± 0.099
18,TAAAGATGTATTTATTCACACATCTCATATAATGAA [CACACA_site5229],7.41 ± 0.49
19,TTATGTATCCTTATAAGAAAAAAAAAAAAATTCTCT [CACACA_negctrl_site1183],7.5 ± 0.5
20,AATAAAAATATAGGCACACATATTAAAATGAACTTA [CACACA_site830],7.85 ± 0.44
21,TGAATTTAGATATATACACACAAAAGTAAATACAAT [CACACA_site5548],7.79 ± 0.49
22,AATATATACATACATACATGCATACATATATATAAC [TGCATGCA_site371],8.03 ± 0.64
23,TTTAAATATATTCAATCACACACATTCGTTTTTTTT [CACACA_site7962],7.71 ± 0.57

row,Sequence,gcPBM binding intensity (ln)
1,GAATATTAAACAAACACACACACATATATATATATA [CACACA_site3382],9.32 ± 0.36
2,AGTAGTCTGGAGAAAAGTACACAGTATCTGGTAACC [XGTACX_site2035],7.82 ± 0.54
3,GTATAAAAATTATATACACACAACAGAATTACATAT [CACACA_site133],7.9 ± 0.49
4,GTTTATTGATTTATTTGTACTTATATATATATTTCA [XGTACX_site5098],8.07 ± 0.63
5,TAAATACAGACATATACACACATATATATATATATA [CACACA_site4382],9.29 ± 0.43
6,ATGTATATGTTTTGTTGTACAAGTATTTTATATCTT [XGTACX_site3588],7.84 ± 0.53
7,TTTCAATTTATCAGTGTGCACAAAAATAAAATAAAA,10.88 ± 0.028
8,AAAAAAAAAAGACACACACACAATAGTATATAAATC [CACACA_site6579],7.74 ± 0.72
9,TATATATATATATTACGTTTTAAATATACTAATCTT [CACACA_negctrl_site32],9.2 ± 0.26
10,TTTTTATTTTTTCAAGTGCATATTTTTGGCTTCTTA,8.77 ± 0.31
11,TAAATTTATATATAGGTGCGCAATTTGATAATAGTT [GTGCAC_site9783],9.82 ± 0.19
12,AAAAAAAAAAAAAATACACACATATATATATATATA [CACACA_site85],9.53 ± 0.23
13,CTTTTTCCTTTATATTGTACATAATTAAAGATAATA [XGTACX_site7014],7.95 ± 0.26
14,TATAAATAGATATATACACACATTTTTAATGATAAA [CACACA_site7299],7.51 ± 0.64
15,TTTTTTATAAATCAAATGAAAAATAAACTATTCAGA [CACACA_negctrl_site1568],7.36 ± 0.45
16,ATACATATAAAAAAGTGTACATATTAAAATAAGTAT [XGTACX_site1310],7.83 ± 0.63
17,TCATACAAACCTATTTGTACATAAGTATAATATATA [XGTACX_site4284],7.46 ± 0.28
18,ATATCCGTTCAAAGATGTACATATATATTCTATAGA [XGTACX_site5354],7.8 ± 0.52
19,AATGCAAATAATAAAACACACAAAAAAAAGAAAAAA [CACACA_site1184],7.66 ± 0.62
20,TATTGCCCTGGACACACACACATATATATATATATA [CACACA_site5389],9.3 ± 0.2
21,TTATGTTATATAAAAAGTACAAATTTTTTTTAATTA [XGTACX_site3435],7.53 ± 0.33
22,ATTATTATTATATATGCATGTAAAATATTAAAGTAC [TGCATGCA_site914],8.85 ± 0.57
23,ATAATATAAACATACACACACACATCTATATTTATA [CACACA_site7381],7.89 ± 0.53

row,Sequence,gcPBM binding intensity (ln)
1,TATATATATATATATACACACATATACATATTGTTT [CACACA_site3499],9.38 ± 0.77
2,TCCTACATATAAAAATGTACCCATTGTTTTTTTTTT [XGTACX_site7205],7.62 ± 0.64
3,AATGTATATAGAAACATGCACACGTGGTTGTATATA [CACACA_site3278],8.19 ± 0.86
4,TTGTGTTAACTACCATGTACTTATACATCATAGGAA [XGTACX_site6627],7.66 ± 0.52
5,ATTTATGTTATATATACACACACAAAAGAAAAAAAA [CACACA_site8977],7.84 ± 0.63
6,TTTTTGTATGCTTCCCGATTACATTATGTTGTAAAT [CACACA_negctrl_site227],8.01 ± 0.76
7,ATTTCAAATTAATTTACACACTTCATACTAAAAGAC [CACACA_site3176],8.2 ± 0.39
8,TTGATATATAATAATACACACTTACATAATTAATTA [CACACA_site4320],7.88 ± 0.37
9,ATTATATTCTCCTTCACACACAAAAATATTTCATCA [CACACA_site5326],8.07 ± 0.49
10,TTACGATTAAATATAACACACAACATATTTTTAATA [CACACA_site2967],7.68 ± 0.4
11,AAGGATATGAAAAGTAGTACAAAATTTAGAACACCC [XGTACX_site4758],8.52 ± 0.18
12,CACAAAAATTTATACACACACATATATAATATATAT [CACACA_site152],7.84 ± 0.59
13,AAGTATTACAACCACACACACACCTATATATCATAG [CACACA_site7878],8.18 ± 0.26
14,ATCTTTTACGAATACACACACATAAAGAAAAAAAAA [CACACA_site1331],8.05 ± 0.42
15,CTCTATAAATGCTGCACACACATTTAATTATTTAAG [CACACA_site2582],9.045 ± 0.064
16,TATAAATATAAATATACACACATATTTATATTTATA [CACACA_site7053],7.67 ± 0.43
17,TATAAATAAAAACACACACACACATATATATATATA [CACACA_site2268],9.29 ± 0.17
18,AAATGAAATACATCCTGTACATAGTAATGCTAACAA [XGTACX_site6600],7.62 ± 0.53
19,TTTTACAATGAAAGGTGTACAAGTAACAGTAGAACA [XGTACX_site1528],8.21 ± 0.45
20,AACAAATACAGACACACACACACACTAATAAAAAAA [CACACA_site8067],8.1 ± 0.19
21,TATTTTTATATTTTTGCACACATTCTTTACTCTTCA [CACACA_site2211],9.39 ± 0.32
22,AAAAATTTTATATTCACACACATATATATATATATA [CACACA_site624],9.43 ± 0.57
23,GATATATATTAATATACACACACACCGATATATATA [CACACA_site8462],8.06 ± 0.61

row,Sequence,gcPBM binding intensity (ln)
1,TTTTGAAACATATGATGTACACGAACATTTAAAAAA [XGTACX_site474],9.66 ± 0.4
2,AATAAATAGATAAGCACACAAGCATATAGACATATA [CACACA_site222],7.72 ± 0.49
3,AAATTCCACCAACACACACACATATAAATAAATAAA [CACACA_site1233],8.05 ± 0.25
4,TTTATATTTTATAAATTATTCATAAATATATTTGTA [TGCATGCA_negctrl_site175],7.36 ± 0.3
5,ATAAATAAAGGACACACACACACACTAGAAAAAAAA [CACACA_site5450],8.24 ± 0.15
6,TTGTGCTTGATATCACGGACAAGCTCATATTATATA [XGTACX_site4553],8.1 ± 0.16
7,AAAATAAAATTAGTTGCATGCAACTTAAACAGAAAT [TGCATGCA_site860],8.14 ± 0.63
8,ATGAAAAAATTTATATGTACTTAAAATATAATCATA [XGTACX_site1228],7.64 ± 0.35
9,TATATTATTAAGATATGTACATAATTATAAATTTAA [XGTACX_site6848],7.8 ± 0.19
10,ATATGTAGATGATATTATTACTTTTCAAAAATTCAA [CACACA_negctrl_site933],7.58 ± 0.39
11,TAATAAGAAATAACAGGTACACATATATAAATATTA [XGTACX_site2976],7.52 ± 0.41
12,AAGTATAAAAAAAGGCGTACAAAAAAAAAAAAAAAA [XGTACX_site7309],8.24 ± 0.49
13,TTTTTCATTAATACAAGTACAAAATGATGTTGACAT [XGTACX_site1475],7.67 ± 0.47
14,TGTGCCCAAAATTATGCACACACCTAAAATTAATTT [CACACA_site2914],10.3 ± 0.4
15,ATGGTAGTTCTCCATGCATGCCTTTTTATTATCATA [TGCATGCA_site681],7.84 ± 1
16,TTTTTGTAAAAACACACACACAAACAGAAAAAATAA [CACACA_site2076],8.25 ± 0.61
17,ATTATCATAATGTTCACACATATGGTATATATAGAT [CACACA_site6113],7.78 ± 0.53
18,ACTATTTAGTCTGGTGGTACTTTATATATAATTTCT [XGTACX_site5618],8.11 ± 0.49
19,ATATGTGTATGTGCGTGTACATATCTATACAGTTGT [XGTACX_site6540],8.29 ± 0.52
20,TTTTATCTTTTTTTATTTTAATGTATTATTTTTATG [XGTACX_negctrl_site24],7.62 ± 0.65
